Measured values taken from article PMC6919601, “Identification of Plasmodium dipeptidyl aminopeptidase allosteric inhibitors by high throughput screening” (PLoS ONE, 2019).
Hit rate of the full screen: of about 110,000 compounds, about 230 (0.21%) showed an effect of 50% or more. Some of the results follow.

Target: DPAP1 (Plasmodium falciparum, UniProt Q8IIJ9)
Test: primary screen, percent inhibition; read by cleavage of a fluorogenic dipeptide substrate; higher = more effect of the substance
Set-up: species or system P. falciparum D10 trophozoite lysates; single well
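Also: 30 min substrate incubation versus DMSO and 10 µM JCP410 controls.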

DPAP1, sequence (Q8IIJ9 whole entry, looked up): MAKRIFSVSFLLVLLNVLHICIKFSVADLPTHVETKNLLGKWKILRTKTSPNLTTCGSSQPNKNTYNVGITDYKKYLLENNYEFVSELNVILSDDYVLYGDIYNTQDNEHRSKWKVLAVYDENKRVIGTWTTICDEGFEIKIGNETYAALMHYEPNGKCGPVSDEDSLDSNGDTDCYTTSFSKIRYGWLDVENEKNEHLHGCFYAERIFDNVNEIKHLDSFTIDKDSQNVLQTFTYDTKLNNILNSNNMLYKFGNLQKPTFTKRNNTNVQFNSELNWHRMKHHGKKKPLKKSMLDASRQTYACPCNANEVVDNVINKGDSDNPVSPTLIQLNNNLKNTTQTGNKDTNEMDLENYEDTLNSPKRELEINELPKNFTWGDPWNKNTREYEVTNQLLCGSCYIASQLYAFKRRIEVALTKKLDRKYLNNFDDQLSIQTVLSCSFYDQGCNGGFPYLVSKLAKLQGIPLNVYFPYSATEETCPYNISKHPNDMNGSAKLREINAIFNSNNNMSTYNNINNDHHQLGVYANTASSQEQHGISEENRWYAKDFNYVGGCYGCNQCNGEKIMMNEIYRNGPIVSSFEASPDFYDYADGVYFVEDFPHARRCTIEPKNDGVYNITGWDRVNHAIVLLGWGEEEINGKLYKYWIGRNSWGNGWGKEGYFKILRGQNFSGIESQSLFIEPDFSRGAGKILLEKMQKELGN

Row | SMILES | % Inhibition @ 10 uM [%]
1 | COc1ccc(Br)cc1C1N(c2nccs2)C(=O)C2CCCN21 (centres unmarked) | 4.51
2 | Cc1ccn2c(C=O)c(-c3ccc(F)cc3)c(C=O)c2c1 | -3.04
3 | Cc1c(C(=O)NCCN2CCN(Cc3ccccc3)CC2)oc2ccccc12 | -2.77
4 | Cc1ccc(C)c(Oc2nc3c(c(=O)n(C)c(=O)n3C)n2Cc2ccc(F)cc2)c1 | -1.47
5 | O=C(Nc1ccc(N2CCOCC2)cc1)c1nc2ccccc2s1 | 0.323
6 | COc1cccc(NC(=O)Cn2nc(C(F)(F)F)cc2C2CC2)c1 | -3.18
7 | CCC(NC(=O)[C@H](CC1CCCCC1)/N=C(\NS(C)(=O)=O)N1CCOCC1)C(=O)c1nc2ccccc2o1 (some centres unmarked) | 0.079
8 | CCC(C)N1C(=O)S/C(=C/c2cn(C)c3ccccc23)C1=O (centres unmarked) | 1.28
9 | c1cc(-c2cccs2)nc(-c2cccs2)c1 | -5.98
10 | COc1ccc(NC(=O)c2cccc(S(=O)(=O)Nc3cccc(C(=O)O)c3)c2)cc1 | -3.52
11 | CC(C)CC(C(=O)NCC#N)n1cnc2c(N3CCN(C)CC3)ncnc21 (centres unmarked) | 3.19
12 | Cc1ccc(S(=O)(=O)N(CC(=O)NCc2ccccc2)c2ccc(F)cc2)cc1 | 0.323
13 | Cc1cc(C)c(C(=O)Nc2ccc(C)c([N+](=O)[O-])c2)c(C)c1 | -0.902
14 | Cc1ccc(CN2CCC(CNC(=O)Nc3cn(CC(C)C)c(=O)c4ccccc34)C2)cc1 (centres unmarked) | -0.705
15 | Cc1ccc(-n2ncc3c(=O)n(Cc4cccc(F)c4)cnc32)cc1C | -3.53
16 | O=C(COc1ccccc1Cl)Nc1ccc(S(=O)(=O)N2CCCCC2)cc1 | -6.17
17 | CC(C)C[C@H](NC(=O)c1cncc(Br)c1)C(=O)NCC#N | -5.2
18 | CCCCCCSc1nc(O)c(CC)c(=O)n1-c1ccccc1 | 0.827
19 | CNc1oc(-c2ccccc2)nc1C#N | 1.27
20 | c1ccc(CSc2ccc(-c3cccs3)nn2)nc1 | 1.95
21 | O=C(C1CCC(CNc2c(N3CCCC3)c(=O)c2=O)CC1)N1CCN(c2ncccn2)CC1 (centres unmarked) | 40.1
22 | CCOc1cccc(NC(=O)c2ccccc2Cl)c1 | 1.84
23 | OCCN1CCN(CC(O)COCC2COc3ccccc3O2)CC1 (centres unmarked) | -9.4
24 | CCOc1cc(CNCCc2cccc(F)c2)ccc1OC | 0.0504
25 | O=C(O)COc1ccc(/C=C2/NC(=O)NC2=O)cc1Br | -3.06

Row | SMILES | % Inhibition @ 10 uM [%]
26 | CC(=O)c1c(C)n(-c2ccccc2)c2ccc(O)cc12 | 3.06
27 | O=C(CNC1CCCC1)Nc1nc(-c2ccc(Cl)cc2Cl)cs1 | 1.39
28 | O=C(O)CCC(=O)Nc1cccc(C(=O)Nc2cccc(Cl)c2)c1 | -7.27
29 | CC(=O)N(CCCN(C)C)c1nc2c(F)cccc2s1 | 1.51
30 | O=C(Nc1nnc(CCSc2ccc3ccccc3c2)s1)c1ccccc1 | 3.25
31 | CC(C)CN1C(=O)c2ccccc2C(C(=O)NCCCN2CCOCC2)C1c1cccs1 (centres unmarked) | -3.77
32 | CCCCN(Cc1ccccc1)C(=O)C1CCN(S(=O)(=O)c2c(C)noc2C)CC1 | -0.426
33 | O=C(CNS(=O)(=O)c1ccc(Br)s1)N1CCN(C(=O)c2ccco2)CC1 | -1.28
34 | O=C(CN1C(=O)C2CCCCC2C1=O)N1CCN(C(c2ccccc2)c2ccccc2)CC1 (centres unmarked) | -1.17
35 | O=C1CCC(=O)N1c1ccc2c(c1)oc1ccccc12 | -2.81
36 | O=C(Nc1ccccc1C(=O)NCc1cccnc1)c1ccc(Cl)cc1 | -6.16
37 | O=C(NCCN1CCCC1)c1cc2ccc3cccnc3c2[nH]1 | 8.23
38 | COc1cc(/C=C(\C#N)c2[nH]nc(N)c2C#N)ccc1OCc1ccccc1 | 2.7
39 | O=C(c1cc2c(s1)-c1ccccc1OC2)N1CCN(C2CCCCC2)CC1 | -1.37
40 | CCOc1ccc(N(CC(=O)Nc2ccc3c(c2)OCO3)S(C)(=O)=O)cc1 | -6.3
41 | O=c1c(-c2ccccc2)c(N2CCC(N3CCCCC3)CC2)c1=O | -1.4
42 | COc1ccc(OCC(=O)c2c(C)[nH]c3ccccc23)cc1 | -0.0372
43 | CC(C)(C)Nc1nc(Cl)nc(N2CCOCC2)n1 | -5.46
44 | O=C(Nc1cccc(C(=O)N2CCN(Cc3ccccc3)CC2)c1)c1ccccc1 | 2.37
45 | COc1ccc(CN2CCN(Cc3ccccc3C(F)(F)F)CC2)cc1OC | -8.86
46 | CCOC(=O)c1c(C)n(CCc2ccc(OC)c(OC)c2)c2ccc(OC)cc12 | 7.63
47 | CNc1nc(-c2ccccc2)cc(-c2ccccc2)n1 | 3.06
48 | COc1ccc(C2NC(c3ccc(OC)cc3)C(C)C(=O)C2C)cc1 (centres unmarked) | 7.57
49 | CCOC(=O)C1=C(N)OC2=C(C(=O)CCC2)C1c1ccc(CC)s1 (centres unmarked) | 0.685
50 | N#Cc1ccccc1CCN1C(=O)c2ccccc2C1=O | 2.02

Row | SMILES | % Inhibition @ 10 uM [%]
51 | CCc1ccc(CNCc2c(C(=O)O)c(C)n(Cc3ccc(C)cc3)c2C)cc1 | 2.99
52 | COc1cc(SC)ccc1C(=O)Nc1ccc(Br)cc1C | -5.96
53 | Cc1oc(-c2ccc(C(=O)NCc3ccc4c(c3)OCO4)cc2)nc1CS(=O)(=O)c1ccccc1 | -3.84
54 | CC(=O)Nc1ccc(S(=O)(=O)Nc2c(C)nn(Cc3cccc4ccccc34)c2C)cc1 | 6.05
55 | NC(=O)C1CCN(C2CCN(CCc3ccccc3)CC2)CC1 | -1.81
56 | Cc1cc(C)n(C(C(=O)c2ccccc2)=C2SCCS2)n1 | 0.605
57 | O=C(NC1CCCc2ccccc21)c1cc2c(Cl)ccc3c2n1CCO3 (centres unmarked) | 0.453
58 | COc1ccc(CCNCc2c(C(=O)O)n(Cc3ccc(F)cc3Cl)c3ccccc23)c(OC)c1 | 3.54
59 | CCOC(=O)c1cnc2c(OC)cccc2c1NCC1COc2ccccc2O1 (centres unmarked) | 1.08
60 | COc1cccc(N2CCN(C3CC(=O)N(c4ccc(C)c(Cl)c4)C3=O)CC2)c1 (centres unmarked) | 4.82
61 | Cc1ccc(C(=O)Nc2ccccc2NC(=O)c2ccc(C)o2)o1 | 5.09
62 | COc1ccc(OC)c(C2=NOC(C(=O)NC(C)C)C2)c1 (centres unmarked) | -0.431
63 | CCOc1cc(/C=C2/NC(=O)NC2=O)cc(Cl)c1OC(C)C | 5.37
64 | CCOc1ccccc1C1C2=C(O)CC(C)(C)CC2=NC(C)=C1C(=O)OC (centres unmarked) | -0.999
65 | COc1cc(OC)cc(C(=O)N2CCN(CCCc3ccccc3)CC2)c1 | -3.37
66 | COc1ccccc1NC(=O)C1=C(C)N=C2CCCC(O)=C2C1c1ccc(Cl)cc1 (centres unmarked) | 0.343
67 | CC1CCCC(C)N1CCNC(=O)C1CCN(S(C)(=O)=O)CC1 (centres unmarked) | -4.97
68 | Cc1cccc(C)c1NC(=O)CN(c1ccc(F)cc1)S(C)(=O)=O | 3.66
69 | O=C1c2cccnc2C(=O)N1c1ccc(-c2nc3ccccc3s2)cc1 | 1.72
70 | CCOC(=O)C1CCCN(CCCc2ccccc2)C1 (centres unmarked) | -0.603
71 | COc1ccc(Cl)cc1NC(=O)CN(c1cccc(C)c1)S(C)(=O)=O | -0.992
72 | CCOC(=O)c1cc(-c2ccc(OC)c(S(=O)(=O)N3CCN(C4CCCCC4)CC3)c2)on1 | 3.95
73 | O=C1N/C(=C/c2ccc(O)cc2)C(=O)N1Cc1ccccc1F | -1.28
74 | CC/N=c1\c(NC(=O)C2CCC(C)CC2)c(O)oc2ccccc12 (centres unmarked) | 5.43
75 | O=C(O)c1ccc(CS(=O)Cc2ccc(Cl)cc2)o1 (centres unmarked) | -0.256

Row | SMILES | % Inhibition @ 10 uM [%]
76 | Cc1nc(N2CCOCC2)c2c3c(sc2n1)CCC3 | 12.3
77 | COc1cc2c(cc1OC)CN(Cc1ccc(F)c(Br)c1)CC2 | -3.77
78 | C/C(=N\[C@@H](CS(=O)(=O)Cc1ccccc1OC(F)F)C(=O)NCC#N)NS(C)(=O)=O | -6.56
79 | Cc1ccc(C)c(NS(=O)(=O)c2cc(Cl)ccc2Cl)c1 | 2.22
80 | CNC(=O)N1c2ccc(C)cc2C2CN(C)CCC21 (centres unmarked) | -0.969
81 | CN1CCN(C(=O)c2ccc(CN(c3ccccc3)S(=O)(=O)c3ccccc3)cc2)CC1 | -1.51
82 | Cc1ccc(C2NC(=O)c3c(sc4c3CCN(C)C4)N2)cc1 (centres unmarked) | -1.28
83 | CCc1ccc(NC(=O)CN(C2CCCCC2)S(C)(=O)=O)cc1 | -0.545
84 | Cn1c(=O)c(-c2ccc(Cl)cc2)c(O)c2ccccc21 | 0.446
85 | COc1cc(S(=O)(=O)Nc2ccc(C)cc2)ccc1/N=C/c1c(C)nn(-c2ccccc2)c1O | 1.19
86 | CCC(C)N(CCNC(=O)C1CCN(c2ncnc3c2nc2n3CCCCC2)CC1)Cc1ccco1 (centres unmarked) | 5.49
87 | CC(CCc1ccccc1)NC(=O)Cn1cnc2onc(-c3ccc(F)cc3)c2c1=O (centres unmarked) | 4.4
88 | Cn1nc(C(=O)Nc2ccccn2)c2c1-c1ccccc1S(=O)(=O)C2 | 1.23
89 | CCc1ccc(/C=C(/C#N)c2nc(-c3ccc(Cl)c(Cl)c3)cs2)cc1 | 0.827
90 | Cc1nc2ncnn2c(O)c1NC(=O)c1cccc(F)c1 | 3.99
91 | O=C(c1ccc(-c2ccccc2)cc1)N1CCCC1 | -3.82
92 | CCCOC(=O)c1ccc(NC(=O)c2c(OC)cccc2OC)cc1 | 3.65
93 | Cn1nc(C(=O)N2CCN(C(=O)c3ccco3)CC2)c2c1-c1ccccc1S(=O)(=O)C2 | -6.34
94 | CC(NC(=O)c1cc2sccc2n1C)c1ccccc1 (centres unmarked) | -6.68
95 | N#Cc1c(N/C=C2/C(=O)NC(=O)N(c3ccc(Cl)cc3)C2=O)sc2c1CCC2 | 0.76
96 | COc1ccc(S(=O)(=O)N2CCC(C(N)=O)(N3CCCCC3)CC2)cc1 | -2.5
97 | COc1cccc(N(CC(=O)NCc2ccco2)S(=O)(=O)c2ccccc2)c1 | -5.19
98 | CCCCNC(=O)Cn1c(=O)cc(C(F)(F)F)c2c(C)nn(C)c21 | -2.29
